Source: PubChem BioAssay AID1347417 (National Center for Advancing Translational Sciences (NCATS), 2020)
Hit rate of the full screen: of about 120,000 compounds, about 5,300 (4.4%) were called active. This list was built around the results that the source calls inconclusive (neither active nor inactive); the mix of calls is not that of the screen. Calls follow the shape of the dose curve; as a rule, active = well fitted inhibition curve with a large enough effect; inconclusive = small, poorly fitted or top-dose-only effect; inactive = no such curve, though single readings can be large or run the other way. Potencies beside an inconclusive call are fits to weak or partial responses and may not hold up.
Potency is read from the fitted curve at half-maximal effect; tags tell the direction and shape of the fitted curve.

Assay: qHTS Primary assay for Inhibitors of Plasmodium falciparum Dd2 growth in vitro; also: nearly all actives have a fitted effect of over 65% in size;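 as to activity, negative = inhibition: plate controls were DMSO vehicle for no effect and reference drug for full effect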
Details: P. falciparum Dd2 growth, SYBR Green, 72 h; activity, negative = inhibition: at 28.9 µM (top of the series) unless noted; series mostly up to 28.9 µM
In short: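 Infected erythrocytes (Dd2, 0.3% parasitemia, 2.5% hematocrit final) are added to compound in RPMI-1640/Albumax II medium, grown 72 h at 37C in low oxygen, then lysed with saponin/Triton-X containing SYBR Green and read by fluorescence.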
In the case of COCc1cc(C[C@@H]2CC[C@H](O)[C@@H](CN(C)C)O2)no1, the “activity, negative = inhibition” value was inactive: -8.69% [at 44.1 µM]. In the case of O=C1CCN(C(=O)Cc2c[nH]c3ccccc23)CCCC(C(=O)NCc2ccccc2)CCN1 (stereo not given), the Potency was inconclusive: 3.98 µM [inhibitor, full curve, poor fit]. In the case of O=C(NCc1cc(F)ccc1F)c1cccnc1N1CC2CC(C1)[C@H]1CCCC(=O)N1C2 (stereo not given in full), the Potency was inconclusive: 7.08 µM [inhibitor, partial curve]. With CCn1cc(C(=O)NCCc2ccccc2)c(=O)c2cc(S(=O)(=O)N3CCc4ccccc4C3)ccc21 the Potency was inconclusive: 12.6 µM [inhibitor, single point]. In the case of O=C(Cc1ccccc1Br)N1CCCN(c2cc(-c3ccc(F)cc3)[nH]n2)CC1, the “activity, negative = inhibition” value was inactive: -2.87%. For O=C(N[C@H]1[C@H]2CCO[C@H]2[C@@H]1N1CCCC1)c1cc2c(s1)CCCCC2, the Potency was inconclusive: 8.91 µM [inhibitor, partial curve, poor fit]. For COC(=O)CNC(=O)c1cc(-c2ccc(Cl)cc2Cl)c2cccn2n1, the activity, negative = inhibition was inconclusive: -33.9% [inhibitor]. With O=C(Nc1ccc(Cl)c(C(F)(F)F)c1)C(Cc1ccccc1)NS(=O)(=O)c1cccc2nsnc12 (stereo not given) the Potency was inconclusive: 17.8 µM [inhibitor, single point]. In the case of CCC(Sc1nc2ncccc2o1)C(=O)Nc1cccc(C)c1 (stereo not given), the “activity, negative = inhibition” value was inactive: -21.5%. For Cc1ccc(C)c(NC(=O)c2ccc3c(c2)CCN3S(=O)(=O)c2ccccc2)c1, the “activity, negative = inhibition” value was inactive: -19.2%. In the case of COc1ccc(CN2C[C@@H](C(N)=O)[C@H](c3nc(C)no3)C2)cc1Cn1ccnc1, the Potency was inconclusive: 7.94 µM [inhibitor, partial curve, poor fit]. With COc1ccc(C(C(=O)O)N2CCN(Cc3csc(C)n3)CC2)c(C)c1 (stereo not given) the “activity, negative = inhibition” value was inactive: -18.3%. In the case of FC(F)(F)Oc1ccc(CN2CCOC[C@H](Oc3cccnc3)C2)cc1, the Potency was inconclusive: 15.8 µM [inhibitor, single point]. With O=C1COCC2(CN1)CN(C(=O)c1ccc(Cl)cc1)C2 the “activity, negative = inhibition” value was inactive: -11.6% [at 44.1 µM]. In the case of COc1ccccc1CCNC(=O)CCCn1c(=O)c2cccn2c2cccnc21, the Potency was inconclusive: 10 µM [inhibitor, partial curve, poor fit]. In the case of CCn1nccc1C(=O)NCCc1ncc(C)n1Cc1ccccc1, the Potency was inconclusive: 1 µM [inhibitor, partial curve, poor fit]. With Cc1cc(=O)n2[nH]c(NC(=O)c3cccc(Cl)c3)nc2n1 the Potency was inconclusive: 0.282 µM [inhibitor, full curve, poor fit]. With COc1ccc([C@@H]2CN(C(=O)CCc3c(C)noc3C)C[C@H]2N(C)C)cc1 the Potency was inconclusive: 0.126 µM [inhibitor, full curve]. With CN(C)c1cccc(Oc2nnnn2[C@H]2CO[C@H]3[C@@H]2OC[C@@H]3NCC2CC2)c1 the Potency was inconclusive: 31.6 µM [inhibitor, single point]. In the case of O=C(CCCCn1c(=O)c2ccccc2n(Cc2cccc(Cl)c2)c1=O)NCc1ccc2c(c1)OCO2, the Potency was inconclusive: 1 µM [inhibitor, single point]. In the case of N#Cc1ccc(C(=O)N2C[C@@H](Oc3ccccc3)C[C@H]2C(=O)N2CCCC2)cc1, the “activity, negative = inhibition” value was inactive: 15.8%. In the case of CCCNC(=O)Cc1ccc(N(Cc2cccc(F)c2)C(=O)c2ccco2)cc1, the Potency was inconclusive: 1.41 µM [inhibitor, full curve, poor fit]. In the case of Cc1nc(N2CCC(NC(=O)c3cc4ccccc4[nH]3)CC2)cc(C(F)(F)F)n1, the Potency was active: 2 µM. For CN(CCNC(=O)CN1CC2CC(C1)[C@H]1CCCC(=O)N1C2)C1CCCCC1 (stereo not given in full), the “activity, negative = inhibition” value was inactive: -13.9%. In the case of O=C(NCC(c1ccc2c(c1)OCO2)N1CCN(c2ccccc2F)CC1)c1ccccc1F (stereo not given), the Potency was inconclusive: 17.8 µM [inhibitor, single point]. In the case of CCN1CCC(OCCCNC(=O)CCC[C@H]2NC[C@@H]3C[C@H]2CN(Cc2ccccc2)C3)CC1, the Potency was inconclusive: 20 µM [inhibitor, single point]. For COc1ccc(C2CC(=O)N(CC(=O)Nc3ccc(C(C)=O)cc3)c3ccccc3S2)cc1OC (stereo not given), the Potency was inconclusive: 17.8 µM [inhibitor, single point]. With CCOC(=O)c1c(C)oc2nc(C)nc(N3CCN(c4cccc(C(F)(F)F)c4)CC3)c12 the Potency was active: 10 µM. In the case of CN1C[C@@H](NC(=O)c2ccc(C(C)(C)C)cc2)C[C@H]1c1nc(-c2ccncc2)no1, the Potency was inconclusive: 12.6 µM [inhibitor, single point]. With COc1cccc(CNC(=O)CC2C(=O)NCCN2CC(C)C)c1OC (stereo not given) the “activity, negative = inhibition” value was inactive: -23.4%. In the case of Cc1ccccc1C(=O)N1CCCC2(C1)Nc1cccnc1NC2=NC1CCCC1 (stereo not given), the Potency was inconclusive: 1 µM [inhibitor, partial curve, poor fit]. For O=C1Nc2ccc(-c3ccccc3F)cc2C(=O)N2CCN(C(=O)C3CCCCC3)C[C@H]12, the Potency was inconclusive: 10 µM [inhibitor, partial curve, poor fit]. With Cc1ccc(CCNC(=O)c2cc3cc(S(=O)(=O)N4CCCCC4)ccc3n2C)cc1 the Potency was inconclusive: 11.2 µM [inhibitor, single point]. With O=C(NC[C@H]1C[C@@H]2CCN1C[C@@H]2CN1CCN(c2ccccc2)CC1)Nc1ccccc1 the Potency was inconclusive: 11.2 µM [inhibitor, partial curve]. With O=C(Nc1cccc(C(F)(F)F)c1)O[C@@H]1CO[C@H]2[C@@H]1OC[C@@H]2n1nnnc1SC1CCCC1 the Potency was inconclusive: 3.55 µM [inhibitor, partial curve, poor fit]. With CCCN1CCN(C(=O)Cn2ncc3c4ccccc4n(Cc4cccc(Cl)c4)c3c2=O)CC1 the Potency was active: 11.2 µM. For CCC(=O)Nc1ccccc1C(=O)OCc1cc(=O)n2cc(C)sc2n1, the “activity, negative = inhibition” value was inactive: 123%. For Cc1cn2nc(C(=O)NCc3ccc(C(C)C)cc3)cc2c(N2CCCC2)n1, the “outcome” value was “inactive”. With COc1cccc([C@@H]2CN(C(=O)c3c(C)noc3C)C[C@H]2C(=O)O)c1OC the “activity, negative = inhibition” value was inactive: -4.87%. With COc1cc2c(cc1OCc1ccccc1)N([S+](=O)([O-])c1ccccc1C(F)(F)F)CC21CCN(C)CC1 the Potency was inconclusive: 2.24 µM [inhibitor, partial curve].
